Counter-ions that a name gives are not always drawn. ± gives the standard deviation of the averaged measurements. The full ranking holds about 3,100 compounds; the median of “mean cytoplasmic OPP incorporation (global translation) relative to DMSO” is about 100, and the lowest 2% start at about 56. The list shows a part of the results. Peptide text beside a SMILES is read from it.
These compounds were tested on U2OS (assay: mean cytoplasmic OPP incorporation (global translation) relative to DMSO (% of DMSO); higher = more protein synthesis). Conditions: 10 µM; 24 h.
Protocol: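 Primary image-based screen in U2OS cells: compounds at 10 uM for 24 h, then a 1 h o-propargyl-puromycin (OPP) pulse, click labelling, and high-throughput microscopy. Mean cytoplasmic OPP intensity and nuclei count were normalised to DMSO wells within each plate (DMSO = 100) and averaged over triplicate plates.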

| Compound | mean cytoplasmic OPP incorporation |
| --- | --- |
| O=C(Cc1ccccc1)Nc1cccc(C(=O)Nc2ccccc2C(=O)O)c1 | 106 |
| CCN1CCCC1CNC(=O)c1cc(S(N)(=O)=O)ccc1OC (centres undefined) [Sulpiride] | 98.5 |
| COc1ccc(-c2ccc3cc(C(=O)O)ccc3c2)cc1C12CC3CC(CC(C3)C1)C2 [Adapalene] | 99.9 |
| O=c1[nH]c(=O)n([C@H]2C[C@H](O)[C@@H](CO)O2)cc1I [Idoxuridine] | 99 |
| CN1CCN(c2ccc3nc(-c4c(N)c5c(F)cccc5[nH]c4=O)[nH]c3c2)CC1 [Dovitinib (TKI-258)] | 89.2 ± 17 |
| C=CCNC1=C2C[C@@H](C)C[C@H](OC)[C@H](O)[C@@H](C)/C=C(\C)[C@H](OC(N)=O)[C@@H](OC)/C=C\C=C(/C)C(=O)NC(=CC1=O)C2=O | 108 |
| Cc1cccc(N(C)C(=S)Oc2ccc3ccccc3c2)c1 [Tolnaftate] | 98.3 |
| O=C(O)c1cccnc1 [Niacin] | 99.5 |
| CCCCc1oc2ccccc2c1C(=O)c1cc(I)c(OCCN(CC)CC)c(I)c1 [Amiodarone] | 105 |
| CCCCc1oc2ccccc2c1C(=O)c1cc(I)c(OCCN(CC)CC)c(I)c1 [Amiodarone hydrochloride] | 117 |
| O=C(Nc1cccnc1)N1CCC(Cc2cccc(Oc3ccc(C(F)(F)F)cn3)c2)CC1 | 113 |
| O=C(Nc1ccc([N+](=O)[O-])cc1Cl)c1cc(Cl)ccc1O [Niclosamide] | 106 ± 11 |
| Cc1cc(C)nc(NS(=O)(=O)c2ccc(NC(=S)NC(=O)COc3ccc(Br)cc3Cl)cc2)n1 | 107 |
| CCOc1ccc(Cc2nccc3cc(OCC)c(OCC)cc23)cc1OCC [Ethaverine hydrochloride] | 111 |
| C#C[C@]1(O)CC[C@H]2[C@@H]3CCC4=Cc5oncc5C[C@]4(C)[C@H]3CC[C@@]21C [Danazol] | 94.8 |
| CC(C)c1nc(CN(C)C(=O)N[C@@H](CCN2CCOCC2)C(=O)N[C@H](CC[C@H](Cc2ccccc2)NC(=O)OCc2cncs2)Cc2ccccc2)cs1 [Cobicistat (GS-9350)] | 113 |
| Cc1cccc(-c2nn3c(c2-c2ccnc4ccc(C(N)=O)cc24)CCC3)n1 | 103 |
| CCO/C(O)=C1\C(C)=NC(c2ccccc2)=C(C(=O)OCc2ccc([N+](=O)[O-])cc2)C1C#Cc1ccccc1 (centres undefined) | 108 |
| O=C(O)c1ccc(C=C2SC(=S)N(c3cccc(C(F)(F)F)c3)C2=O)cc1 | 103 |
| CC12CC3CC(C)(C1)CC(N)(C3)C2 [Memantine hydrochloride] | 98.7 |
| CC12CC3CC(C)(C1)CC(N)(C3)C2 [Memantine Hydrochloride] | 96.7 |
| N[C@@H](Cc1cc(I)c(O)c(I)c1)C(=O)O [3,5-Diiodo-L-tyrosine] | 100 |
| CN1C(C(=O)Nc2ccccn2)=C(O)c2sc(Cl)cc2S1(=O)=O [Lornoxicam (Xefo)] | 96.4 |

| Compound | mean cytoplasmic OPP incorporation |
| --- | --- |
| N#Cc1c(Oc2ccc(F)c(NC(=O)Cc3cccc(C(F)(F)F)c3)c2)ccc2nc(NC(=O)C3CC3)sc12 | 95.8 |
| CCC[C@@H]1C[C@@H](C(=O)N[C@@H]([C@H]2O[C@H](SC)[C@H](O)[C@@H](O)[C@H]2O)[C@@H](C)O)N(C)C1 [Lincomycin hydrochloride] | 88.9 |
| CCC[C@@H]1C[C@@H](C(=O)N[C@@H]([C@H]2O[C@H](SC)[C@H](O)[C@@H](O)[C@H]2O)[C@@H](C)O)N(C)C1 [Lincomycin HCl (Lincocin)] | 105 |
| CO[C@H]1C[C@@H]2CC[C@@H](C)[C@@](O)(O2)C(=O)C(=O)N2CCCC[C@H]2C(=O)O[C@H]([C@H](C)C[C@@H]2CC[C@@H](OC(=O)C(C)(CO)CO)[C@H](OC)C2)CC(=O)[C@H](C)/C=C(\C)[C@@H](O)[C@@H](OC)C(=O)[C@H](C)C[C@H](C)/C=C/C=C/C=C/1C [Temsirolimus (Torisel)] | 88.2 |
| CO[C@H]1C[C@@H]2CC[C@@H](C)[C@@](O)(O2)C(=O)C(=O)N2CCCC[C@H]2C(=O)O[C@H]([C@H](C)C[C@@H]2CC[C@@H](OC(=O)C(C)(CO)CO)[C@H](OC)C2)CC(=O)[C@H](C)/C=C(\C)[C@@H](O)[C@@H](OC)C(=O)[C@H](C)C[C@H](C)/C=C/C=C/C=C/1C | 96.4 |
| CCN(CC)CCN[C@@H](C(=O)OCCC(C)C)c1ccccc1 [Camylofine chlorhydrate] | 102 |
| CN1CCCN=C1/C=C/c1cccs1 [Pyrantel tartrate] | 93.5 |
| CC/C=C\C/C=C\C/C=C\C/C=C\C/C=C\C/C=C\CCC(=O)O [Docosa-4Z,7Z,10Z,13Z,16Z,19Z-hexaenoic acid] | 99.8 |
| Cc1ccc(C(=O)Nc2cccc(C(F)(F)F)c2)cc1Nc1nc(-c2cccnc2)nc2c1cnn2C | 145 |
| CCOC(=O)N1c2ccc(C(F)(F)F)cc2[C@@H](N(Cc2cc(C(F)(F)F)cc(C(F)(F)F)c2)C(=O)OC)C[C@H]1CC | 118 |
| COc1ccc(-c2cc(=O)c3c(OC)c(OC)c(OC)c(OC)c3o2)cc1OC [Nobiletin (Hexamethoxyflavone)] | 114 |
| CC[C@H](CO)Nc1nc(Nc2cccc(-c3ccccn3)c2)c2ncn(C(C)C)c2n1 [(R)-DRF053 dihydrochloride] | 104 |
| CC(=O)Nc1c(I)c(C(=O)N[C@H]2C(O)O[C@H](CO)[C@@H](O)[C@@H]2O)c(I)c(N(C)C(C)=O)c1I (some centres undefined) [Metrizamide] | 107 |
| O=C(O)c1ccnc(C(=O)O)c1 [2,4-Pyridinedicarboxylic Acid] | 94.2 |
| Cc1ccccc1N1CCN(S(=O)(=O)C[C@]23CC[C@H](C[C@@H]2NC(=O)[C@@H](N)CCS(C)(=O)=O)C3(C)C)CC1 [L-368,899 hydrochloride] | 101 |
| NC[C@H](O)c1ccc(O)c(O)c1 [Noradrenaline bitartrate monohydrate (Levophed)] | 102 |
| CCN(CC)CCNC(=O)c1ccc(N)cc1 [Procainamide hydrochloride] | 95.5 |
| Brc1ccc(C2CN3CCSC3=N2)cc1 [L-p-Bromotetramisole oxalate] | 94.5 |
| c1cc(CN2CCCCC2)cc(OCCCNc2nc3ccccc3s2)c1 [Zolantidine dimaleate] | 118 |
| CCc1cc2c(cc1CC)CC(NC[C@H](O)c1ccc(O)c3[nH]c(=O)ccc13)C2 [Indacaterol Maleate] | 110 |
| CNCC(O)c1ccc(O)c(O)c1 (centres undefined) [Racepinephrine HCl] | 101 |
| CCOC1O[C@H]([C@@H](COCc2ccccc2)OCc2ccccc2)[C@H](OCc2ccccc2)[C@H]1O (some centres undefined) [Tribenoside] | 107 |
| Cc1c(-c2ccc(O)cc2)n(Cc2ccc(OCCN3CCCCCC3)cc2)c2ccc(O)cc12 [Bazedoxifene HCl] | 131 |

| Compound | mean cytoplasmic OPP incorporation |
| --- | --- |
| CCOC(=O)[C@@H](C)Oc1cccc2c(=O)n(CC(=O)Nc3ccc4c(c3)OCCO4)ccc12 | 93 |
| CC(C)[N+]1(C)[C@@H]2CC[C@H]1C[C@@H](OC(=O)C(CO)c1ccccc1)C2 (some centres undefined) [Ipratropium bromide] | 96.6 |
| Cc1ccc(-c2cc(C(F)(F)F)nn2-c2ccc(S(N)(=O)=O)cc2)cc1 [Celecoxib] | 108 ± 1.8 |
| O=C(O)c1cccc(-c2noc(-c3ccccc3F)n2)c1 [PTC124 (Ataluren)] | 103 |
| Nc1ccc(S(=O)(=O)Nc2nccs2)cc1 [Sulfathiazole] | 102 |
| CC(CNC1CCCCC1)OC(=O)c1ccccc1 (centres undefined) [Hexylcaine hydrochloride] | 100 |
| CN[C@H]1CC[C@@H](c2ccc(Cl)c(Cl)c2)c2ccccc21 [Sertraline HCl] | 114 |
| CN[C@H]1CC[C@@H](c2ccc(Cl)c(Cl)c2)c2ccccc21 [Sertraline hydrochloride] | 106 |
| CN[C@H]1CC[C@@H](c2ccc(Cl)c(Cl)c2)c2ccccc21 [Sertraline] | 107 |
| C[C@@H]1CCC[C@H](C)N1NC(=O)c1ccc(Cl)c(S(N)(=O)=O)c1 [Clopamide] | 103 |
| N#Cc1c(N(CC(=O)O)CC(=O)O)sc(C(=O)O)c1CC(=O)O [Strontium ranelate (Protelos)] | 96.6 |
| CC[C@H]1OC(=O)[C@H](C)[C@@H](O[C@H]2C[C@@](C)(OC)[C@@H](O)[C@H](C)O2)[C@H](C)[C@@H](O[C@@H]2O[C@H](C)C[C@H](N(C)C)[C@H]2O)[C@](C)(O)C[C@@H](C)CN(C)[C@H](C)[C@@H](O)[C@]1(C)O [Azithromycin] | 111 |
| CCn1c(N)c(C(=O)NC)c(=O)c2ccc(C#CC(C)(O)COC)nc21 (centres undefined) | 97.7 ± 0.15 |
| CCOC(=O)C1=C(C)NC(=S)NC1c1cccc(O)c1 (centres undefined) [Monastrol] | 89.1 |
| OCCn1cc(-c2ccc3c(c2)CC/C3=N\O)c(-c2ccncc2)n1 | 109 |
| CCS(=O)(=O)c1cccc(-c2cc(C(=O)NC3CCN(C)CC3)c(C)c3[nH]c4ncc(C)cc4c23)c1 | 46.8 |
| C1CCC(N=C(NC23CC4CC(CC(C4)C2)C3)N2CCOCC2)CC1 | 106 |
| COC(=O)[C@H](Cc1ccccc1)NC(=O)[C@@H](N)CC(=O)O [Aspartame] (H-Asp-Phe-OMe) | 101 |
| O=C(/C=C/c1ccc(O)c(O)c1)O[C@H](Cc1ccc(O)c(O)c1)C(=O)O [Rosmarinic acid] | 106 ± 3.8 |
| CO/N=C(\C(=O)N[C@@H]1C(=O)N2C(C(=O)O)=C(COC(C)=O)CS[C@H]12)c1csc(N)n1 [Cefotaxime sodium salt] | 104 |
| COC1CCC(C(=O)c2ccc3nc4c(cc3c2)CCCO4)CC1 (centres undefined) | 98.8 |
| C=C[C@](C)(O)CC[C@@H]1[C@@]2(C)CCCC(C)(C)[C@@H]2CC[C@@]1(C)O [Sclareol] | 102 |
| NC(=O)N/N=C/c1ccc(Oc2ccc(F)cc2)cc1 | 97.1 |

Source: the supplement of paper PMC8183993
